We go through 56 variants from the RNAGym collection of RNA variant scans (doi:10.7554/elife.90254).

The source gives no read counts; variants with many changes may rest on few reads.

B1: LINE1-mini (parent)
chain: GGCAGAGCUCAACACAGCGUGGCAAAGUGGCUGUGGCUAGACUGCC

The variants in this data set derive from B1. Description: self-cleavage, relative activity (ratio to wild type); higher = more cleavage; in vitro, sequencing; the parent is a self-cleaving ribozyme.
Turning to GGCAGAGCUCAACACAGCGUAGAAAAGUGGCUGUGGAUAGACUGGC, the self-cleavage stood at 0.05.

In the case of GGCAGAGCUCAACACAGCGUGGCAAUGUGGCUCUGGCUAGACAGCC, the self-cleavage was 0.03.

In the case of GGCAGCGCUCAACAGAGCGAGGCAAAGUGGCUGUGGCUUGACUGCC, the self-cleavage is 0.02.

Regarding GGCACAGCUCAACAUAGCGUGGCAAAGAGGCUGUGGCUAGACUGCC, the self-cleavage is 0.1.

Take GGCACAGCCCAACACAACGUGGCAAAGUGGCUGUGGCUAGACUGCC: the self-cleavage amounted to 0.03.

As to GGCAAAGUUCAACACGGCGUGGCAAAGUGGCUGUGGCUAGACUGAC, the self-cleavage worked out at 0.15.

As to GGCAGAGCUCAACACAGCGUGGCAAAUUGGCUGUGCCUUGACAGCC, the self-cleavage came out at 0.02.

As for GGCAGAGCUCAAAACAGCGUGGCAAAGUGGCUGUGGGUUUACUGCC, the self-cleavage was determined as 0.02.

Take GGCAGCGCUCAACACAGCGUGGCAAAGUGGCGCUGGCUAGACUGCC: the self-cleavage was determined as 0.03.

As to GGCAGAGCUCAAAACAGCGUGGCAAAGUGAGUGAGGCUUGACUACC, the self-cleavage was determined as 0.

As to GCAAGAGUACAACACAGCGUGGCAAAGUGGCUGUGGCUAGACUGCC, the self-cleavage was 0.26.

For the variant GGCACAGCUCAACACAGCGUGGCAAAGUGUUUGUGGUUAGGCUGCC, the self-cleavage was determined as 0.03.

As to GGCAGAGCUCAACACAGCGUGGCAAAGUUGCGGGGGCUAGACUGCC, the self-cleavage came to 0.13.

For the variant GGCAGAGCUAAGCACAGCGUGGCAAAGUGGCUAUGGCUGGACUGCA, the self-cleavage turned out to be 0.02.

Regarding GGCAGAGCUCAACACAGCGUGGCAAAGUUGCUGUGGCUGGACUGAC, the self-cleavage is 0.1.

Regarding GGCAGAGCUCAACACUGCGUGCCAAAGUGGCUGUAGCUAGACUGCC, the self-cleavage was determined as 0.06.

In the case of GGCAGCGCUCAACACAGCGUUGAAAAGUGGCUGUGGCUAGACUACC, the self-cleavage was 1.47.

Consider CGCAGAGCUCAACACAGCGUGGAAAAGUGGCUGUGGCUAGCCUGCC, for which the self-cleavage came out at 0.

For GACAGAGCUGAACAAAGCGUGGCAAAGGGGCUGUGGCUAGACUGCC, the self-cleavage came to 0.02.

Take GGCAGAUCUCAACACACCGUGGCAAAGUGGCUGUGGCUCGACUGCC: the self-cleavage was 0.16.

As for GGCAAUGCACACCACAGCGUCGCGACGUGGCUGUGGCUAGACUGCC, the self-cleavage was 0.04.

For the variant GGCAGAGCUCACCAGAGCGUGGCAAAGUGACUGUGGCUAGAAUGCC, the self-cleavage turned out to be 0.

Regarding GGCAGAGAUCAACACAGCGUGGCAAUGUGGCUGUGGCUAGCCUGCC, the self-cleavage came to 0.35.

Regarding GGCAGAGCUCAACACAGCGUGGCAAAGUCGCUGUGGAUAGACUGUU, the self-cleavage was 0.07.

Consider GGCAAAUCUUACGACAGCGUGCCAAAGUGGCUGUGGCUAGACUGGC, for which the self-cleavage turned out to be 0.01.

Turning to GGCAGAGCUCAACACUGCGACGCAAAGUGGCUGCGGCUAAACUGCC, the self-cleavage amounted to 0.03.

In the case of GGUAGAGCUCAACACAGCGUGGCAAAGCGGCAGUGGCUAGACUGCC, the self-cleavage was 0.05.

For the variant GGCAGAGCUCAACAAAGCGUGGCCAAGCGGCUGGGGCUAGACUGCC, the self-cleavage amounted to 0.02.

For GGCAGAGCUCAACACAGCGUGGCAAGGUGGCUGAGGCUAGACCGCC, the self-cleavage is 0.01.

Consider GGUAGAGCUCAACACAGCGUGGCAACCUGGCUGUGGCUAGACUGCC, for which the self-cleavage is 0.18.

As for GGCAGAGCUCAACACAGCGUGGCAAAGUGGCUUGGUCUAGACUGCC, the self-cleavage amounted to 0.06.

Consider GGCAGGGCUCAACACAGCGUGGCAAUAUGCCUGUGGCUAGACUGCC, for which the self-cleavage was 0.06.

GGCAGAGAUCAACACCGCGUGGCAAAGUGGCUGUGGCUAGACUACC: the self-cleavage was determined as 0.22.

Regarding GGCAGAGCUCAACACAGCGAGGCAAGGUGGCUGUGCCUAGACUGCC, the self-cleavage is 0.15.

Regarding GGCCGAGCUCAACACAGCGUGGCAAGGUGGCUGUGGCUAGAAUGCC, the self-cleavage was found to be 0.08.

Take GGCAGAGCUCAACACAGCGGGGCAAAGUGUCUGUGGAUAGACUGCC: the self-cleavage was 0.05.

For the variant GUUAGAGCUCAACACAGCUUGGUAAAGUGGCUGUGGCUAGACUGCC, the self-cleavage is 0.36.

On to GGCAGAGCUCAACACAGCCUGGCAAAGUCGCUGUGGCUCGACUGCC, for which the self-cleavage is 0.18.

In the case of GCCAGACAUCAACACAGCGUGGCAAAGUGGCUGUGGCUAGACUACC, the self-cleavage is 0.05.

As to UGGAGAGCUCAACACAGCGUGGCAAAGUCGCUGUGGCUAGACUGCC, the self-cleavage was found to be 0.04.

As to GGCACAGUUCAACGCAGCUUGGCAAAGUGGCUGUGGCUACACUGCC, the self-cleavage came to 0.02.

GGGAGAGCUCAAAACAGCGUGGUAAAGUGGCUCUGGCUAGACUGCC: the self-cleavage came out at 0.13.

In the case of GGCAGGGCUAAACACUGCGUGGCAAAGUGGCUGUGGCUACACUGCC, the self-cleavage turned out to be 0.

As to GACAGAGCUCAACACACCGUGGCAAAGUGGCUGUGGCUAGAAUGCC, the self-cleavage was determined as 0.19.

In the case of GGCAGAGCUAAACACAGCGUGGCAAAGUGGCUGUGGCUGGACUGCG, the self-cleavage was 0.01.

Consider GGCAGAGCUCAACAAAGCGUGGCAAAGUAGCUGUGGCUAGACUACC, for which the self-cleavage is 0.04.

Regarding GGCAGAGCUCAACACAGCGUGGCAAAGUGGCUGAGGGUAAACUGCC, the self-cleavage worked out at 0.02.

In the case of GGCAGAGCUCAACACAGCGUGGCAAAGAGGCUAGUGCUAGACUGCC, the self-cleavage was 0.01.

Take GGCAGAGAUCAACAAAGCGUGGCAAAGUGGCUGUGGGUCGAUUGUC: the self-cleavage was 0.25.

In the case of UUCGGACCUCAACACAGCGUGGCAAAGUGGCUGUGGCUAGACUGCC, the self-cleavage came to 0.14.

In the case of GGAAGAGCUCAACACAGCGUGGCAAAGUGGCUGUGGCUAGCCUGGC, the self-cleavage came to 0.06.

As for GGCAGAGCUCAAUAGAGCGUGGCAAAGUGGUUGUGGCUAGACUGCC, the self-cleavage turned out to be 0.02.

With GGCAGAUCUCAAGACAGCGUGGAAAAGUGGCUGUGGCUAGACUGAC, the self-cleavage was determined as 0.23.

Turning to GGCAGAGAUCGACACAGCGUGGCCAAGUGGUUGUGGCUGGACUGCC, the self-cleavage is 0.02.

In the case of GGCAGAGAUCAACACAGCGUGGCAAAGUGGUUGUGGCAAGACUGCC, the self-cleavage was found to be 0.32.

Take GGCAGAGCUCAACACAGUGAGGCAAAGUGGCUCUGGCUAGACUGCC: the self-cleavage amounted to 0.
